# Results published in the RNAGym collection of RNA variant scans (doi:10.7554/elife.90254).
# Read counts are not given, so values of variants with three or more changes are uncertain.
# B1: LINE1-full (parent)
# chain: UACGUAGGUGGUUUUCCCCUGAUAGUGCUAAGGGGGCCUGGAAGUUUGGACUGGGCAGAGCUCAACACAGCGUGGCAAAGUGGCUGUGGCUAGACUGCCUCUCUGGAUUCCUCGUCACUCAGCAGGGCAUCUCUGAGAGAAAUGCC
# Variants of: B1
# Test: self-cleavage, relative activity (ratio to wild type); higher = more cleavage; in vitro, sequencing; the parent is a self-cleaving ribozyme
row,Variant,self-cleavage
1,A30U A42G A65G A94U C145U,0.14
2,C37U U46C C120U,1.39
3,U23C U45C A94U,0.52
4,U5C U143C C146U,1.15
5,U12A A94U A140G,0.42
6,U73G U115G U134C,1.25
7,A107G C131U U143C,1.59
8,U45C C113A A129G,1.55
9,A6U U9G C101G,0.37
10,U23C G75A U102A,0
11,U9A U23G G122U,1.06
12,A77G A79G U87C U96A,0.21
13,A57C U109C U130C A136U,0
14,U23C U29C A124G,2.16
15,U14C U87A A129U,0.03
16,U39C C103A U130A,0.77
17,U100C A117G G126A U130C C131A,2.53
18,U9A C19U U73A U115G,1.43
19,U20A U46C U134C,0
20,U15C U100C U119C,2.63
21,U9C A69U A79G U85C,0
22,A2U U13C G74A C101A A141G A142G,0.69
23,A2G A24G A57G A67G G114A,0.92
24,U14C A43G A79G,0.77

row,Variant,self-cleavage
1,A94G U112C U132C,0.16
2,U23C U62C A77U,0.11
3,U14C A31U C113A,0.68
4,U14C U109C C113U,1.25
5,A121G A141G G144A,2.15
6,U26C A79G A140G,1.17
7,U108C G122U A129G,1.04
8,U9A C76U A78G U115A,1.86
9,A24U G54U U96A U130A A140G,0.02
10,U47A A59G U96C,0.08
11,U45C A78G A129G,1.41
12,A64G A77U U100C A107G,0.18
13,U45A U85C A94U U112A U134C,0
14,U9G U20C U26C C113U G125U,1.28
15,U52A A77G U119C,2.42
16,U1C A42G A67U A78G U81C,0
17,A6G U12C U45A,1.41
18,U52C G54A A67G A78G,0.06
19,A59U A65G U130A,0.05
20,A42G C84U A107G A129G A136U,0.15
21,U39A A50G A59U G97A,0.07
22,U13C A42U C71G A79G,0.07
23,U1C G10A A43U U96C A121G,0
24,G49A A59G C61U G75A A117G U134A,0.02

row,Variant,self-cleavage
1,G7U A67C C116U,0.08
2,U5C U104A U115C,1.08
3,U15C U109A A117G,1.97
4,U52A C76U A136U,1.81
5,G36C U73C U87A,0.15
6,A22G A77G C110A U132A,1.79
7,G7A U15A U132C A141G,0.57
8,A30G C51A U62A,0.07
9,G35A U39C U96A U119C A121G A138G,0.09
10,U15A C116U A129G,1.15
11,U23G A50U G74A,0.49
12,U20G A59U A117G,1.84
13,U14C G72A U100C,0.73
14,U9C G10C U15C A43G,1.41
15,U47A A94G G106A,0.38
16,U14C G49A A94G,0.25
17,U85C C113G U119C,0.25
18,G35A A64G U115A,0.17
19,U12C A65G U100C A142G,0
20,A64U A65U A94G U130C,0
21,A43G G75U A129G,0.86
22,U15C G21A U130A,1.05
23,C38U A65U C90G,0.04
24,U12C C61U A141G,0.02

row,Variant,self-cleavage
1,G7U A57U A64C,0.12
2,U14C U47A U115C,1.16
3,U62C U130A A140G,0.03
4,G32U G86U U100C A124U,0.23
5,G7A U15A U100C,0.61
6,U46A U62C A77G,0.04
7,A6U A24U U119C,0.88
8,G4A U26G C71U U143C,0.64
9,U12C U29A A43G A92G A94U A138G,0
10,U45A U46C A79G U102A A107U A124U,1.41
11,A50G A124G C146G,0.59
12,G4C U134A A142G,0.22
13,U20C U47C A129G A136U,1.4
14,U20C A43U A79U,1.86
15,U26C A30C A77U U81A U143C,2.44
16,U20A U39A A42G A92G,0.09
17,U5C U46C A107U U112G A124G,1.02
18,U13C U47C U109C A142G,0.66
19,U26C G35A A69U,0.07
20,U12C A24G A77G C84U U85C U134A,0.22
21,U14C A77U A79G G88A A117G C133A U143C,0.03
22,U9A U14A U112C,1
23,U9C G11U A65G A77G A142U,0.22
24,C38U U91C U96C U102C G127A,0.09

row,Variant,self-cleavage
1,A77G U81A U132A,2.48
2,U1A A24G U143C,1.02
3,U104C G106U U119C A124U A140G,2.69
4,A42G A117G A124G U134C,1.02
5,U5C A22U A65G U96A G125U U134C,0.02
6,A31U U47C A64G U109A,0
7,A2G A22G G72A U87C,0.49
8,U1C U13C G89C U132C A142G,0.13
9,A30U U39C U100C,1.91
10,A22G A57G U102A,0.16
11,A24G A43G U45C U47C A50U A142G,1.15
12,U100C A107G A142G,1.58
13,U39A C61U A92U,0.02
14,U26C U39A U81A U91A,0.78
15,A22C U62C A92G U132C,0
16,A6G A79G U85G,1.45
17,U1C U39C U115C,0.56
18,U26G U62A U134C,0.22
19,A31G A42C G126A A142G,1.18
20,A31G A59G A67G,0
21,U13C U47A A65G A77G A107G,0.54
22,G4A U9C A43G C118G U130C A140G,0.71
23,U39C U46C C71U U73A,0.31
24,G8A C37G A77U U119C,1.53

row,Variant,self-cleavage
1,C37U A78U U100C A138U,2.67
2,U13C A31G G36A U46C U85A A117G A129U,0.26
3,G54A U96C U115C,0.06
4,A2G U46C U47G G125U U134C,0.79
5,A42G U73C U143A,2.87
6,U1C A65C U134C A138G A142G,0.19
7,U23C G82A U91A U119C,1.36
8,U62A U96A U108C,0.07
9,C84U U87A U143C,0.27
10,A24G G27A A65G U115A,0.06
11,U15A A67G A77G U87A,0
12,U9C U87C A124U,2.12
13,A31U C61U U132A A138G,0.12
14,U5C U14C A43G A79G,1.19
15,A22G G74A U104C U132C,1.44
16,A31U C118U C123A A141G,1.65
17,A43U A57U U62C A94G A117C G126A,0.11
18,U13A A31G U109C,0.78
19,A31U G33U G35U U115C,1.05
20,U9A A50G A78U U87C,0.06
21,G72A U85C G86A U87A,0.07
22,U29C U39C A42G A117U,1.71
23,U29A A64G U87C G89A,0
24,U12C U47C A138G,0.59

row,Variant,self-cleavage
1,U14A A107G U119A,1.21
2,C98G U132C U143A,0.1
3,A79U U130A A142G,2.1
4,G53A U62C A92U,0
5,A31G U73A U87C A140G,0.24
6,U46C A69G A142G,0.34
7,G27A U87C U108C,0
8,U13A G49U U52C G54A A78G U102C,0.17
9,G32A G55U U62C G114U A136G A142G,0.06
10,A2U U14C U46C,0
11,U20C U39A C51U,0.8
12,U23C U39A A67G,1.41
13,A30G A59G C84A U85G,0
14,G7U U13C G35A A107G,1.06
15,U73C U119C U130C,0.97
16,U73C C111U A117G C118A A140G,1.86
17,U45C U46C U112A,1.52
18,U13C U46C A77U,1.02
19,U5C U134C A138G,0.72
20,U23C U46G G54A U115A G126A,0.3
21,A30G A57G U115C A138G,0.71
22,U26A U47G U100C A142G,1.23
23,A24G A78C A142C,1.94
